{"source": "paper PMC4336329", "about": "(PLoS ONE, 2015)", "note": "Among all 310,000 compounds or so, about 2,200 (0.71%) showed an effect of 50% or more. Effects have a minus sign here. The list shows a part of the results.", "data": [{"biological_target": "human ether-à-go-go-related gene (hERG) potassium channel (human, UniProt Q12809)", "sequence (Q12809 whole entry, looked up)": "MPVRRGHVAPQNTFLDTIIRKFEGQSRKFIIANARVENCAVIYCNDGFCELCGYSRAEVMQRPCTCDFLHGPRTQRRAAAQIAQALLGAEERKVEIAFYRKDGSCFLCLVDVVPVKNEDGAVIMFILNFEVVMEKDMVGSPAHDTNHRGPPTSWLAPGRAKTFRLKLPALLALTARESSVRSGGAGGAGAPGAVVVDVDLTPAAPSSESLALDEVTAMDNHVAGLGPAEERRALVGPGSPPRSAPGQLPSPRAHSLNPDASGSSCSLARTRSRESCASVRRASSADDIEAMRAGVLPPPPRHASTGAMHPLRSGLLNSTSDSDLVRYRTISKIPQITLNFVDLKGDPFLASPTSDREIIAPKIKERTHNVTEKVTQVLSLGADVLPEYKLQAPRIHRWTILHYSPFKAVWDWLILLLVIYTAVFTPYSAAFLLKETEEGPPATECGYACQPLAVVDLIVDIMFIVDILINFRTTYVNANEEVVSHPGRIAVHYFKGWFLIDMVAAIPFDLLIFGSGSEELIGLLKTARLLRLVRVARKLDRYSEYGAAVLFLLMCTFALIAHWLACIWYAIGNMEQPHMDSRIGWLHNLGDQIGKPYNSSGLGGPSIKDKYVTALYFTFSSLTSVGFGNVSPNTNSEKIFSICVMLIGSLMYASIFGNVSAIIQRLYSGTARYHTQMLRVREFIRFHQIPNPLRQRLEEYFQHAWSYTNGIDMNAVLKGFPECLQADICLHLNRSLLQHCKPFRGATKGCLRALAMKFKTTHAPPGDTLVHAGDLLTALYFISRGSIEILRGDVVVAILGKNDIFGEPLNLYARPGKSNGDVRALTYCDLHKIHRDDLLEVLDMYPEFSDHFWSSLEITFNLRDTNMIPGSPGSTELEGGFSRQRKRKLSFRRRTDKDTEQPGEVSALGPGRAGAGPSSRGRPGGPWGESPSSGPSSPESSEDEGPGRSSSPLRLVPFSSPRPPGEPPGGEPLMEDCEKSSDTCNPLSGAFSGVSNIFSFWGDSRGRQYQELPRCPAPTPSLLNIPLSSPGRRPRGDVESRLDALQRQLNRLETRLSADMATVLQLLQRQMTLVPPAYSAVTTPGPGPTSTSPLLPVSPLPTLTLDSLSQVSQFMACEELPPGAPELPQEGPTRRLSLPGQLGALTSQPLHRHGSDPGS", "assay": "primary screen, population patch clamp on CHO cells stably expressing hERG", "units": {"hERG current change (%, negative = inhibition) at 1uM": "%"}, "values": [{"smiles": "O=C(c1c[nH]c2ccccc12)N1CCOCC1", "hERG current change (%, negative = inhibition) at 1uM": 10.7}, {"smiles": "O=C(NNC(=O)c1ccccc1-n1cccc1)c1ccc(F)cc1", "hERG current change (%, negative = inhibition) at 1uM": 9.83}, {"smiles": "COc1ccc2[nH]c(=O)c(CN(C(=O)c3cccnc3)c3cc(C)ccc3C)cc2c1", "hERG current change (%, negative = inhibition) at 1uM": 1.43}, {"smiles": "Cc1ccc2c(N)c(C(=O)N(c3ccccc3)c3ccccc3)sc2n1", "hERG current change (%, negative = inhibition) at 1uM": 25.3}, {"smiles": "COc1ccccc1NC(=O)COC(=O)/C=C/c1ccccc1[N+](=O)[O-]", "hERG current change (%, negative = inhibition) at 1uM": 3.16}, {"smiles": "Cc1c(NC(=O)c2cc(-c3ccco3)on2)c(=O)n(-c2ccccc2)n1C", "hERG current change (%, negative = inhibition) at 1uM": 11.4}, {"smiles": "Cc1ccc(CNC(=O)COC(=O)[C@@H]2CC(O)CN2S(=O)(=O)c2ccc3c(c2)OCCO3)cc1", "note": "(stereo partly shown)", "hERG current change (%, negative = inhibition) at 1uM": 6.07}, {"smiles": "O=C(CNC(=O)c1cnccn1)Nc1ccc(F)c(F)c1F", "hERG current change (%, negative = inhibition) at 1uM": 18}, {"smiles": "N#CC1(NC(=O)CSc2nnc(COc3ccccc3F)n2N)CCCCC1", "hERG current change (%, negative = inhibition) at 1uM": 11.8}, {"smiles": "CC1CCc2c(sc(NC(=O)C3c4ccccc4Oc4ccccc43)c2C(N)=O)C1", "note": "(stereo not shown)", "hERG current change (%, negative = inhibition) at 1uM": 4.65}, {"smiles": "CC(=O)c1c(C)[nH]c(-c2ccccc2)c1C", "hERG current change (%, negative = inhibition) at 1uM": 10.4}, {"smiles": "CC(OC(=O)CC1CCCCC1)C(=O)Nc1ccc(S(N)(=O)=O)cc1", "note": "(stereo not shown)", "hERG current change (%, negative = inhibition) at 1uM": 0.0288}, {"smiles": "CN(C(=O)c1cncc(Br)c1)c1c(N)n(Cc2ccccc2)c(=O)[nH]c1=O", "hERG current change (%, negative = inhibition) at 1uM": 9.13}, {"smiles": "O=C(CNc1ccccc1Cl)c1ccc(Br)cc1", "hERG current change (%, negative = inhibition) at 1uM": 8.01}, {"smiles": "O=C(c1ccc2c(c1)OCCO2)C1CCN(S(=O)(=O)c2ccc(F)cc2)CC1", "hERG current change (%, negative = inhibition) at 1uM": -6.43}, {"smiles": "CCCCn1c(N)c(N(CC)C(=O)CSCC(=O)Nc2ccc(OC)cc2)c(=O)[nH]c1=O", "hERG current change (%, negative = inhibition) at 1uM": 19.4}, {"smiles": "C[C@H](NC(=O)c1cc2c([nH]c3ccccc32)c(-c2ccccc2)n1)C(=O)O", "hERG current change (%, negative = inhibition) at 1uM": 8.39}, {"smiles": "CC(C)c1cc(N2CCN(C(=O)c3ccco3)CC2)n2c(nc3ccccc32)c1C#N", "hERG current change (%, negative = inhibition) at 1uM": -9.3}, {"smiles": "O=C(Nc1ccc(N2CCOCC2)cc1)Nc1ccc2nsnc2c1", "hERG current change (%, negative = inhibition) at 1uM": 10.9}, {"smiles": "COC(=O)c1cc(C#N)c(N2CC(C)OC(C)C2)nc1C", "note": "(stereo not shown)", "hERG current change (%, negative = inhibition) at 1uM": 14.9}, {"smiles": "CCOc1c(Br)cc(C(N)=O)cc1OC", "hERG current change (%, negative = inhibition) at 1uM": 19.2}, {"smiles": "C=CCn1c(N)nc2ccccc21.Cl", "hERG current change (%, negative = inhibition) at 1uM": 12.5}, {"smiles": "CCCNC(=O)CN1C(=O)NC(CCSC)C1=O", "note": "(stereo not shown)", "hERG current change (%, negative = inhibition) at 1uM": 13.1}, {"smiles": "O=C(Nc1ccccc1)/C(=C\\c1ccncc1)NC(=O)c1ccccc1", "hERG current change (%, negative = inhibition) at 1uM": 4.01}, {"smiles": "COc1ccc(Cl)cc1NC(=S)Nc1cccc(C)c1", "hERG current change (%, negative = inhibition) at 1uM": 14.9}, {"smiles": "O=C(CNC(=O)c1ccccc1Cl)NCC(c1cccs1)N1CCOCC1", "note": "(stereo not shown)", "hERG current change (%, negative = inhibition) at 1uM": 9.1}, {"smiles": "CCn1c(=S)sc2c(=O)n(-c3ccccc3)c(SCC(=O)NCc3ccco3)nc21", "hERG current change (%, negative = inhibition) at 1uM": -19.2}, {"smiles": "COc1ccc(OC)c(C2C(C(=O)N(C)C)=C(C)Nc3nc4ccccc4n32)c1", "note": "(stereo not shown)", "hERG current change (%, negative = inhibition) at 1uM": -2.64}, {"smiles": "CCOc1ccccc1C(=O)Nc1nnc(SCC(=O)Nc2cc(C)on2)s1", "hERG current change (%, negative = inhibition) at 1uM": 6.85}, {"smiles": "CCOCCCN(C(=O)CNC(=O)c1ccco1)C(C(=O)NC1CCCC1)c1cccc(OC)c1", "note": "(stereo not shown)", "hERG current change (%, negative = inhibition) at 1uM": 6.62}, {"smiles": "CSc1ccc(C(=O)NCC(=O)O)cc1[N+](=O)[O-]", "hERG current change (%, negative = inhibition) at 1uM": 4.62}, {"smiles": "CCc1nnc(NC(=O)c2ccc3ncsc3c2)s1", "hERG current change (%, negative = inhibition) at 1uM": 16.3}, {"smiles": "COc1cccc2cc(C(=O)NCCc3c[nH]c4ccccc34)c(=O)oc12", "hERG current change (%, negative = inhibition) at 1uM": 13}, {"smiles": "Cc1cc(C)c(C(CC(=O)c2cccs2)C(C#N)C#N)c(C)c1", "note": "(stereo not shown)", "hERG current change (%, negative = inhibition) at 1uM": 4.34}, {"smiles": "O=C(N/N=C/c1ccccc1OCc1ccccc1Cl)c1cccnc1", "hERG current change (%, negative = inhibition) at 1uM": 6.93}, {"smiles": "O=C1CCN(CCc2ccccc2)CCN1CCOc1ccccc1", "hERG current change (%, negative = inhibition) at 1uM": -33}, {"smiles": "COCCNC(=O)Cn1cc(/C=C(\\C#N)C(=O)NC2CC2)c2ccccc21", "hERG current change (%, negative = inhibition) at 1uM": 11}, {"smiles": "CN1CCN(C(=O)/C(=C/c2ccccc2F)NC(=O)c2ccccc2)CC1", "hERG current change (%, negative = inhibition) at 1uM": -2.89}, {"smiles": "COc1ccc2c(c1)CC[C@@H]1[C@@H]2CC[C@]2(C)[C@@H](C(=O)O)C[C@@H]12", "hERG current change (%, negative = inhibition) at 1uM": 8.15}, {"smiles": "Cc1cc(C(=O)Cn2nc(C(=O)O)c3ccccc3c2=O)c(C)n1-c1ccccc1", "hERG current change (%, negative = inhibition) at 1uM": 10.5}, {"smiles": "Cc1ccccc1CN1CCN(CC(=O)NCc2ccc3c(c2)OCO3)C1=O", "hERG current change (%, negative = inhibition) at 1uM": -0.614}, {"smiles": "C=CCN1C(=O)C(C)(C)N(C(C)=O)c2ccccc21", "hERG current change (%, negative = inhibition) at 1uM": 5.66}, {"smiles": "CCOC(=O)Cc1csc(NC(=O)CCCC(=O)O)n1", "hERG current change (%, negative = inhibition) at 1uM": 12.6}, {"smiles": "Cc1cc(=O)[nH]c(SC(C(=O)O)c2ccccc2)n1", "note": "(stereo not shown)", "hERG current change (%, negative = inhibition) at 1uM": -4.85}, {"smiles": "Nc1ccc(C(=O)c2cccs2)cc1", "hERG current change (%, negative = inhibition) at 1uM": 11.6}, {"smiles": "CCS(=O)(=O)NCCc1csc(-c2cccnc2)n1", "hERG current change (%, negative = inhibition) at 1uM": 20.2}, {"smiles": "CC1CCCN(CCCNC(=O)c2ccc(N3CCCC3=O)cc2)C1", "note": "(stereo not shown)", "hERG current change (%, negative = inhibition) at 1uM": 13.9}, {"smiles": "COc1ccc(NC(=O)N/C=C/c2ccc(Cl)cc2)cc1", "hERG current change (%, negative = inhibition) at 1uM": 9.77}, {"smiles": "COC(=O)CCC(=O)OC1(C)C(=O)C=C2C=C(C3CC3)N(CCCOC(C)C)C=C2C1=O", "note": "(stereo not shown)", "hERG current change (%, negative = inhibition) at 1uM": 7.79}, {"smiles": "CCCSc1nc2sc3c(c2c(=O)[nH]1)CC(C)(CC)OC3", "note": "(stereo not shown)", "hERG current change (%, negative = inhibition) at 1uM": 19.9}, {"smiles": "Cl.c1ccc(C2CSc3ccccc3N2)cc1", "note": "(stereo not shown)", "hERG current change (%, negative = inhibition) at 1uM": 3.09}, {"smiles": "CCOc1ccccc1N1CCN(C(=O)CC(C)(C)C)CC1", "hERG current change (%, negative = inhibition) at 1uM": 5.31}, {"smiles": "CCOC(=O)N1CCN(C(=O)c2ccc3nc4ccc(Cl)cc4c(=O)n3c2)CC1", "hERG current change (%, negative = inhibition) at 1uM": 5.16}, {"smiles": "NC(=O)CC(NC(=O)Cc1ccc(Br)cc1)c1ccc(NC2CCN(Cc3ccccc3)CC2)c([N+](=O)[O-])c1", "note": "(stereo not shown)", "hERG current change (%, negative = inhibition) at 1uM": 18.5}, {"smiles": "O=C1Nc2ccccc2C1=Nc1ccc(F)cc1", "hERG current change (%, negative = inhibition) at 1uM": 12.6}, {"smiles": "CCOc1ccccc1N1CCN(CC(=O)Nc2nc(C)c(C(=O)N(C)C)s2)CC1", "hERG current change (%, negative = inhibition) at 1uM": 3.07}, {"smiles": "CCCCC(CC(O)COCC(C)C)C(=O)NNC(=S)Nc1ccccc1", "note": "(stereo not shown)", "hERG current change (%, negative = inhibition) at 1uM": 10.1}, {"smiles": "Cc1nc(C(C)NC(=O)c2cc(COc3ccc(F)c(F)c3)on2)cs1", "note": "(stereo not shown)", "hERG current change (%, negative = inhibition) at 1uM": 6.73}]}]}
